In all, about 340,000 compounds went through this assay and about 120 (0.035%) were called active. The inconclusive results got no clear call from the source; some entries with a clear call stand among them for comparison.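 How the source made its calls: active means mean replicate inhibition at least 50% and at least half of replicates individually reaching 50%; inconclusive means only one of the two criteria met; inactive means neither criterion met.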
Assay: E. coli Tat export inhibitors, primary screen, MC4100, TorA-mCherry reporter, fluorescence, single point (AID 488895);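 further: exported cargo escapes ClpAP degradation while cytoplasmic cargo is degraded and loses fluorescence; 0% = median of neutral control wells and 100% = median of NaSCN control wells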
Conditions: at 10 µM, hits give high values

SMILES | inhibition
C=C(C)C1CCC(C)=C1CC(C)(C)/C=N\n1cnnc1 (configuration not stated) | inconclusive: 37.1%
CC(=O)Nc1cccc(-c2csc(Nc3cc(C)ccn3)n2)c1 | inconclusive: 24.7%
O=C(CNC(=O)c1ccccc1)NC1(C(=O)NC2CCCC2)CCCCC1 | inconclusive: 32.4%
Cc1ccc(S(=O)(=O)Nc2cc(C)on2)cc1 | inactive: -0.845%
CC1(C)Cc2ccccc2C(N/N=C/c2ccc([N+](=O)[O-])cc2)=N1 | inactive: 6.01%
O=C(NCCOC(=O)c1cccs1)c1cccnc1 | inconclusive: 28.5%
C(=N\c1nccs1)/Nc1nccs1 | inconclusive: 37.1%
S=c1[nH]nc(-c2cccnc2)n1C1CCCCC1 | inconclusive: 23.9%
O=C(c1ccco1)N1CCN(C(=O)c2ccc(CS(=O)c3ccc(F)cc3)o2)CC1 (configuration not stated) | inconclusive: 31.7%
CC(=O)CSc1ncnc2sc3c(c12)CCC(C)C3 (configuration not stated) | inconclusive: 27.8%
CN(Cc1ccccc1)C(=O)COC(=O)c1ccc(Br)o1 | inactive: -0.307%
O=C(NCc1ccccc1)c1cc(S(=O)(=O)N2CCCCC2)ccc1N1CCOCC1 | inactive: -3.07%
O=C(NC1CC1)c1ccc(N2CCCCC2)c([N+](=O)[O-])c1 | inconclusive: 33.3%
CC(=O)c1ccc(-n2nncc2C(C)(C)C)cc1 | inactive: 6.74%
CN(C)S(=O)(=O)c1ccc(C(=O)OCC(=O)c2ccc3c(c2)NC(=O)CO3)cc1 | inactive: 6.71%
Cc1ccc(S(=O)(=O)N2CCOCC2)cc1NC(=O)c1cc2ccccc2oc1=O | inconclusive: 39.1%
CC(NC(=O)Nc1nccs1)(C(F)(F)F)C(F)(F)F | inconclusive: 19.7%
COc1ccc(OC)c(NC(=O)c2cccnc2)c1 | inconclusive: 22.7%
N#CC1=C2SCC(O)(c3ccccc3)N2C(=O)CC1c1ccccc1F (configuration not stated) | inconclusive: 38.2%
COc1ccccc1/C=N/OC(=O)c1ccc(C)cc1 | inactive: -2.87%
Cc1csc(NC(=O)c2c(-c3c(Cl)cccc3Cl)noc2C)n1 | inconclusive: 26.8%
Cc1cc(Cl)ccc1OCc1cn2cccnc2n1 | inactive: -6.2%

SMILES | inhibition
O=C(C[n+]1ccccc1)Nc1ccccc1C(F)(F)F | inconclusive: 30.8%
CCOC(=O)C1(c2nc(N)cs2)COC(=O)C1 (configuration not stated) | inconclusive: 32.3%
C[C@H](NC(=O)c1nc[nH]c1C(=O)NCc1ccc(CNC(=O)OC(C)(C)C)cc1)c1ccccc1 | inconclusive: 29%
CC(C)(C)c1ccc(OCC(O)CS(=O)(=O)c2ccccn2)cc1 (configuration not stated) | inconclusive: 34%
S=C(NCc1ccccc1)NCc1cccc(CNC(=S)NCc2ccccc2)c1 | inactive: -4.01%
CCCc1ccc2oc(C(=O)N(C)Cc3nccs3)c(C)c2c1 | inconclusive: 40.4%
CCOC(=O)c1ccccc1-n1nnnc1C | inconclusive: 24.6%
CCCOc1cc(C)c(S(=O)(=O)N2CCN(C)CC2)cc1C | inconclusive: 49.5%
C#CCOCCOCCOCCNc1nc(N2CCN(C(=O)C(Cc3ccc(O)cc3)n3cc(C(N)CC(C)C)nn3)CC2)nc(N2CCN(C(=O)C(Cc3ccc(O)cc3)n3cc(C(N)C(C)CC)nn3)CC2)n1 (configuration not stated) | inconclusive: 33.7%
CC(C)C[C@H]1C(=O)N2CCC[C@H]2[C@]2(O)O[C@](NC(=O)[C@@H]3C=C4c5cccc6[nH]c(Br)c(c56)CC4N(C)C3)(C(C)C)C(=O)N12 (some centres not stated) | inconclusive: 44.5%
O=C1C=C(NCc2ccc(Cl)c(Cl)c2)CC1 | inconclusive: 28.4%
COC(=O)c1ccc(CNC(=O)C2CCC(=O)N(Cc3ccccn3)C2)cc1 (configuration not stated) | inconclusive: 34.6%
CCOc1ccccc1C1C(C(N)=O)=C(C)Nc2nc(-c3ccccc3Cl)nn21 (configuration not stated) | inconclusive: 24.5%
O=C1CCCC(=NNC(=O)c2cc3ccccc3cc2O)C1 | inactive: 1.45%
CCNc1nc(OC)nc(Oc2ccc(=O)n(-c3ccccc3)n2)n1 | inconclusive: 32.4%
C[C@H]1c2cccc(O)c2C(=O)C2C(=O)C3(O)C(=O)C(C(N)=O)C(=O)[C@@H](N(C)C)[C@@H]3[C@@H](O)[C@@H]21 (some centres not stated) | active: 148%
Cn1c(N)c(C(=O)COC(=O)CCCN2C(=O)c3ccccc3C2=O)c(=O)n(C)c1=O | inconclusive: 23.3%
CC1Oc2ccccc2C=C1/C=N/Nc1ccc(C(=O)O)cc1 (configuration not stated) | inactive: 1.62%
COc1cc2c(cc1OC)C(c1cccc(F)c1)CC(=O)N2 (configuration not stated) | inconclusive: 36.2%
C=CCN1C=C2C(=O)C(C)(OC(=O)c3ccc(OC)cc3)C(=O)C(c3ccco3)=C2C=C1CCCC (configuration not stated) | inconclusive: 40.7%
CCN(CC)CC(=O)N(CC(=O)Nc1c(C)cc(C)cc1C)C1CCCCC1 | inconclusive: 39.1%
COc1ccccc1NS(=O)(=O)c1cccc(N=C2N=C(N)c3ccccc32)c1 | inconclusive: 35.7%

SMILES | inhibition
O=C(N/C(=C/c1ccccc1)C(=O)N1CCCCC1)c1ccc(Br)o1 | inconclusive: 26.6%
CCc1cc(=S)n2c([nH]c3ccccc32)c1C#N | inactive: 6.14%
COc1c(N2CCN(C(=S)NC3CC4CCC3C4)C(C)C2)c(F)cc2c(=O)c(C(=O)O)cn(C3CC3)c12 (configuration not stated) | active: 63.8%
COc1ccc(-n2c(O)c(/C=N/NS(=O)(=O)c3cccc([N+](=O)[O-])c3)c3ccccc3c2=O)cc1OC | inconclusive: 30.2%
NS(=O)(=O)c1ccc(CCNC(=O)CC(NC(=O)c2ccccc2Cl)c2ccccc2)cc1 (configuration not stated) | inactive: 1.98%
CCC1CCCCN1Cc1nc2c(c(=O)n(C)c(=O)n2C)n1CCCc1ccccc1 (configuration not stated) | inconclusive: 23.6%
CCOC(=O)N/N=C\c1ccc([N+](=O)[O-])o1 | inconclusive: 24.4%
CC(C)S(=O)(=O)c1csc(NC(=O)Nc2ccc(Cl)cc2)c1 | inactive: 0.582%
COc1ccc([N+](=O)[O-])cc1/C=N/NC(=O)Cc1ccccc1 | inconclusive: 25.6%
Cc1noc(C)c1COc1ccccc1C(=O)NC1CCC(C)CC1 (configuration not stated) | inconclusive: 31.4%
CSc1ccccc1NC(=O)CN(C)CC(=O)Nc1ccc(S(=O)(=O)N2CCCC2)cc1 | inconclusive: 30.4%
CCCCCN=C(N)N/N=C/c1c[nH]c2ccc(OC)cc12 | inactive: 10.9%
Cc1ccccc1C(=O)N1CCC(C(=O)NC(C)c2ccc(-n3ccnc3)cc2)CC1 (configuration not stated) | inconclusive: 32%
COC(c1ccccc1)c1nnc(CCC(=O)N(C)C(C2CC2)C2CC2)o1 (configuration not stated) | inconclusive: 28.4%
COc1ccc(-c2c[n+](CC(=O)N3c4ccccc4Sc4ccccc43)c3n2CCC3)cc1 | inactive: 4.64%
NC(=O)C1CCN(C(=O)c2ccco2)CC1 | inconclusive: 31.9%
C=CCc1c(C)nc(C)nc1N/N=C/c1ccc(N(C)C)cc1 | inconclusive: 25.1%
O=C(COC(=O)Cn1cnc2ccccc2c1=O)NCC12CC3CC(CC(C3)C1)C2 | inconclusive: 25.1%
CCN(C1CCS(=O)(=O)C1)S(=O)(=O)c1cc(C)ccc1C (configuration not stated) | inconclusive: 28.3%
COc1ccc(OC2OC3COC(c4ccco4)OC3C(O)C2NC(C)=O)cc1 (configuration not stated) | inconclusive: 29.4%
CCOc1cccc(-c2c(C(=O)N/N=C(\C)c3ccccn3)nnn2-c2nonc2N)c1 | inactive: 5.26%
CCCC(C(=O)NNC(=O)c1cc(C)oc1C)c1ccccc1 (configuration not stated) | inconclusive: 23.8%

SMILES | inhibition
COc1cc2[nH]c(=O)n(Cc3ccc(C(=O)NC4CCCC4)cc3)c(=O)c2cc1OC | inconclusive: 33.5%
CCOc1cc(C(=O)N2CCCN(C)CC2)cc(OCC)c1OCC | inconclusive: 19.5%
O=C1NC(=O)C(c2ccccc2)(c2ccccc2)N1 | inconclusive: 21.5%
CC(C)NC(=O)CN1CCN(C(=O)c2ccc3oc(CCCc4ccccc4)nc3c2)CC1 | inconclusive: 26.3%
O=C(NCCN1CCOCC1)c1ccc(Cl)c([N+](=O)[O-])c1 | inactive: -6.49%
CN(C/C=C/c1ccccc1[N+](=O)[O-])Cc1ccccc1 | inconclusive: 22.7%
COc1ccc(-c2nc(-c3ccccc3)nc(Cl)c2C#N)cc1 | inactive: -11.3%
NC1CCN(c2nc3c(cc2F)c(=O)c(C(=O)O)cn3-c2ccc(F)cc2F)C1 (configuration not stated) | active: 71.6%
CC(C)c1cc(C(=O)NCc2ccco2)no1 | inconclusive: 28.5%
O=C(Cc1ccccc1)Nc1ccc2oc(=O)ccc2c1 | inconclusive: 30.9%
N/C(=N\OS(=O)(=O)c1ccccc1)c1cccnc1 | inconclusive: 29.8%
Cc1ccc(N2NC(C)(c3cccs3)NC2=S)cc1 (configuration not stated) | inactive: 2.28%
Oc1cc(Cl)cc(Cl)c1Cl | inactive: -1.26%
CCN(CC)c1ccc(C(=C2C=CC(=[N+](CC)CC)C=C2)c2ccc(N(CC)CC)cc2)cc1 | active: 51.3%
O=C(NNC(=S)Nc1cccc(Cl)c1)c1ccccc1OC(F)F | inconclusive: 36.8%
Cn1c(O)c(/C=N/NC(=O)c2cc3ccccc3cc2O)c2ccccc21 | inactive: 3.95%
Cc1nn(-c2ccccc2)c(Cl)c1/C=N/NC(=O)c1ccccc1NS(=O)(=O)c1cccs1 | inconclusive: 24.9%
Cc1onc(-c2ccccc2)c1C(=O)O/N=C(\N)c1ccc([N+](=O)[O-])o1 | inactive: 2.59%
CC(C)(C)NC(=O)c1nn(Cc2ccccc2)c(=O)c2ccccc12 | inconclusive: 25.6%
Cc1cc(C)c(S(=O)(=O)N2CCN(C(=O)CN3C(=O)NC4(CCCC4)C3=O)CC2)c(C)c1 | inconclusive: 20.8%
O=C(Nc1ccc2c(c1)OCCO2)C1CCCN(S(=O)(=O)c2cccnc2)C1 (configuration not stated) | inconclusive: 21.1%
